The results in this text go back to the supplement of paper PMC5499739.

Over roughly 16,000 sequences, “Z-score” has its median near -0.37; the highest 2% begin near 3.1. This is one part of the list.

The experiment relates to RBM10 RRM1-ZnF-RRM2 (GST-tagged construct). The experiment is described as follows: RNAcompete 7-mer binding Z-score; higher = stronger binding preference. The method, then:
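RNAcompete: 20 pmol GST-tagged RBM10 RNA-binding constructs were incubated with a designed RNA pool of about 241,000 sequences up to 41 nt (1.5 nmol) on glutathione beads for 30 min at 4 °C and washed. Bound RNAs were identified by microarray hybridisation. Each RNA 7-mer is scored by a one-sided Z-score of its enrichment, computed over probes that contain the 7-mer within longer pool sequences.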
With CCCAAAU, the “RNAcompete 7-mer binding Z-score” value was -0.828.

With UGGCUAA, the “RNAcompete 7-mer binding Z-score” value amounted to 0.294.

Consider GUUAGGG, for which the “RNAcompete 7-mer binding Z-score” value amounted to 3.65.

Regarding UACCGAU, the “RNAcompete 7-mer binding Z-score” value is -0.435.

Consider UCCCUAC, for which the “RNAcompete 7-mer binding Z-score” value was -0.879.

On to UACAAAC, for which the “RNAcompete 7-mer binding Z-score” value is -0.402.

For UCGACAC, the “RNAcompete 7-mer binding Z-score” value is -0.49.

As to UCAAAAA, the “RNAcompete 7-mer binding Z-score” value is -0.584.

With GGGCCCC, the “RNAcompete 7-mer binding Z-score” value came to 0.301.

UGGAUCA: the “RNAcompete 7-mer binding Z-score” value stood at 0.705.

As for CCUGGAU, the “RNAcompete 7-mer binding Z-score” value is -0.577.

On to CUUAGCU, for which the “RNAcompete 7-mer binding Z-score” value is -0.832.

Take GGCUUUC: the “RNAcompete 7-mer binding Z-score” value was -0.643.

UACGUGG: the “RNAcompete 7-mer binding Z-score” value was determined as 1.24.

Consider GUUACUC, for which the “RNAcompete 7-mer binding Z-score” value was -0.581.

UCUUAUG: the “RNAcompete 7-mer binding Z-score” value was -0.843.

With AUGUCCG, the “RNAcompete 7-mer binding Z-score” value was -0.69.

CAGAGUU: the “RNAcompete 7-mer binding Z-score” value was -0.158.

In the case of GCCCAGG, the “RNAcompete 7-mer binding Z-score” value was -0.0889.

For the sequence UGCGUAU, the “RNAcompete 7-mer binding Z-score” value was -0.413.

For the sequence AAUAUAG, the “RNAcompete 7-mer binding Z-score” value amounted to 0.0495.

Turning to UAUUACA, the “RNAcompete 7-mer binding Z-score” value was -0.482.

For GAAAUCG, the “RNAcompete 7-mer binding Z-score” value stood at 0.195.

Regarding UGAUCCC, the “RNAcompete 7-mer binding Z-score” value is -0.541.

Turning to AGAUGUG, the “RNAcompete 7-mer binding Z-score” value was 0.829.

In the case of GCGACUA, the “RNAcompete 7-mer binding Z-score” value is -0.231.

Turning to CUGAGUA, the “RNAcompete 7-mer binding Z-score” value is -0.388.

As to UAGAUAC, the “RNAcompete 7-mer binding Z-score” value was -0.369.

Regarding GUAGCGA, the “RNAcompete 7-mer binding Z-score” value was determined as 0.818.

Take GAAGUUC: the “RNAcompete 7-mer binding Z-score” value was -0.457.

In the case of CGCCCUG, the “RNAcompete 7-mer binding Z-score” value was -0.653.

As for AAGUCCA, the “RNAcompete 7-mer binding Z-score” value was -0.34.

Consider CUAAUGG, for which the “RNAcompete 7-mer binding Z-score” value was 0.13.

As for AACACUC, the “RNAcompete 7-mer binding Z-score” value was -0.817.

As to UAGGGCA, the “RNAcompete 7-mer binding Z-score” value came out at 2.23.

For UCAGGCG, the “RNAcompete 7-mer binding Z-score” value was 0.57.

Take GCUCGGA: the “RNAcompete 7-mer binding Z-score” value came to 0.00216.

Consider GGGUCGG, for which the “RNAcompete 7-mer binding Z-score” value came out at 2.52.

Turning to CUCAGCG, the “RNAcompete 7-mer binding Z-score” value is -0.424.

For the sequence UGCGAAG, the “RNAcompete 7-mer binding Z-score” value stood at 0.279.

Take UUUCCCA: the “RNAcompete 7-mer binding Z-score” value is -0.748.

Consider UCGGUAG, for which the “RNAcompete 7-mer binding Z-score” value was 0.556.

For the sequence UCUCUGC, the “RNAcompete 7-mer binding Z-score” value is -0.81.

Turning to UGGCCUG, the “RNAcompete 7-mer binding Z-score” value is -0.322.

As to UCCAUGC, the “RNAcompete 7-mer binding Z-score” value was -0.519.

With GUGACUC, the “RNAcompete 7-mer binding Z-score” value is -0.0925.

With GGUGUUA, the “RNAcompete 7-mer binding Z-score” value stood at 0.989.

As for CUUAGUA, the “RNAcompete 7-mer binding Z-score” value was -0.635.

GCAAGAU: the “RNAcompete 7-mer binding Z-score” value was -0.114.

In the case of UACCCUG, the “RNAcompete 7-mer binding Z-score” value is -0.621.

Consider ACCAUAU, for which the “RNAcompete 7-mer binding Z-score” value is -0.748.

For ACUUGGU, the “RNAcompete 7-mer binding Z-score” value is -0.267.

As to GCGUGGA, the “RNAcompete 7-mer binding Z-score” value came to 2.22.

For GCUGUAA, the “RNAcompete 7-mer binding Z-score” value was -0.453.

With GGGAUUA, the “RNAcompete 7-mer binding Z-score” value turned out to be 2.72.

On to GACAUGG, for which the “RNAcompete 7-mer binding Z-score” value came out at 2.7.

Turning to AUCGUAC, the “RNAcompete 7-mer binding Z-score” value was -0.435.

For the sequence UCGGUGA, the “RNAcompete 7-mer binding Z-score” value came to 0.479.

In the case of CACAAUC, the “RNAcompete 7-mer binding Z-score” value was -0.799.

With AAGGGCU, the “RNAcompete 7-mer binding Z-score” value is 1.39.

On to AACAUCG, for which the “RNAcompete 7-mer binding Z-score” value was -0.355.

AUAAACG: the “RNAcompete 7-mer binding Z-score” value is -0.136.

Regarding GGGAUGU, the “RNAcompete 7-mer binding Z-score” value was 2.88.

On to CAAAGUG, for which the “RNAcompete 7-mer binding Z-score” value is 0.366.

On to CCCUCUC, for which the “RNAcompete 7-mer binding Z-score” value was -0.759.

For the sequence CAGCGGA, the “RNAcompete 7-mer binding Z-score” value was 1.16.

Turning to GAGGUUU, the “RNAcompete 7-mer binding Z-score” value was 0.785.

Regarding CGGCGAG, the “RNAcompete 7-mer binding Z-score” value amounted to 1.46.

On to AGACAUA, for which the “RNAcompete 7-mer binding Z-score” value was -0.0561.

AUUUUCC: the “RNAcompete 7-mer binding Z-score” value was -0.806.

Turning to GGAUAUC, the “RNAcompete 7-mer binding Z-score” value amounted to 0.833.

For CGUCACA, the “RNAcompete 7-mer binding Z-score” value is -0.286.

On to GGUACGC, for which the “RNAcompete 7-mer binding Z-score” value was 0.902.

As to ACUGGGG, the “RNAcompete 7-mer binding Z-score” value turned out to be 1.58.

Consider CAGUCAU, for which the “RNAcompete 7-mer binding Z-score” value was -0.723.

Turning to UAGUACU, the “RNAcompete 7-mer binding Z-score” value is -0.278.

Consider UAGCAAU, for which the “RNAcompete 7-mer binding Z-score” value is -0.078.

As for CUCGAUU, the “RNAcompete 7-mer binding Z-score” value was -0.839.

For GCAUCCA, the “RNAcompete 7-mer binding Z-score” value was -0.519.

With UCUUCGG, the “RNAcompete 7-mer binding Z-score” value is -0.657.

For the sequence GCUUUUG, the “RNAcompete 7-mer binding Z-score” value was -0.679.

Regarding GCGUCUC, the “RNAcompete 7-mer binding Z-score” value is -0.661.

Turning to AAGGUGU, the “RNAcompete 7-mer binding Z-score” value is 2.26.

GGCAUCG: the “RNAcompete 7-mer binding Z-score” value amounted to 0.487.

Take UCGGAGC: the “RNAcompete 7-mer binding Z-score” value was 0.0641.

For AGUGAAC, the “RNAcompete 7-mer binding Z-score” value was determined as 0.505.

Turning to AUUUCGG, the “RNAcompete 7-mer binding Z-score” value was -0.256.

Take UAGGACC: the “RNAcompete 7-mer binding Z-score” value is 0.636.

With AGCCGAU, the “RNAcompete 7-mer binding Z-score” value was -0.5.

With GUAAUUG, the “RNAcompete 7-mer binding Z-score” value worked out at 0.29.

On to AUCCGUC, for which the “RNAcompete 7-mer binding Z-score” value was -0.752.

As to GGGUCUA, the “RNAcompete 7-mer binding Z-score” value was found to be 0.519.

For the sequence CGGCAGA, the “RNAcompete 7-mer binding Z-score” value came to 0.421.

Regarding CGGCGAC, the “RNAcompete 7-mer binding Z-score” value came to 0.17.

For AAUGAAC, the “RNAcompete 7-mer binding Z-score” value was -0.231.

Take GUUGUUU: the “RNAcompete 7-mer binding Z-score” value is -0.158.

For the sequence AUGCGGA, the “RNAcompete 7-mer binding Z-score” value was 0.898.

Consider ACAUGAU, for which the “RNAcompete 7-mer binding Z-score” value was -0.282.

For the sequence AGAUCAG, the “RNAcompete 7-mer binding Z-score” value came out at 0.406.

With GACAAGA, the “RNAcompete 7-mer binding Z-score” value amounted to 0.253.

For UAACCUA, the “RNAcompete 7-mer binding Z-score” value was -0.734.

For the sequence AGAUGUA, the “RNAcompete 7-mer binding Z-score” value stood at 0.213.

Take ACUGAAU: the “RNAcompete 7-mer binding Z-score” value is -0.493.

As for GCUAUUA, the “RNAcompete 7-mer binding Z-score” value is -0.435.

In the case of AUUCACA, the “RNAcompete 7-mer binding Z-score” value is -0.683.

With GGAAUAA, the “RNAcompete 7-mer binding Z-score” value was found to be 1.23.

With AACUGAU, the “RNAcompete 7-mer binding Z-score” value is -0.384.

Take AGUUGGA: the “RNAcompete 7-mer binding Z-score” value worked out at 1.85.

As to GCAUGUC, the “RNAcompete 7-mer binding Z-score” value is -0.464.

As for UAUCCUA, the “RNAcompete 7-mer binding Z-score” value is -0.821.

Consider UCCGAGC, for which the “RNAcompete 7-mer binding Z-score” value was -0.795.

In the case of AGCUUGU, the “RNAcompete 7-mer binding Z-score” value is -0.803.

Consider CUCUGUA, for which the “RNAcompete 7-mer binding Z-score” value is -0.763.

On to CAUGCAC, for which the “RNAcompete 7-mer binding Z-score” value was -0.595.

As to CGAUUUG, the “RNAcompete 7-mer binding Z-score” value is -0.639.

On to GUCAUGU, for which the “RNAcompete 7-mer binding Z-score” value is -0.103.

Regarding AGAGACG, the “RNAcompete 7-mer binding Z-score” value stood at 0.33.
